# Reference: paper PMC5515408
# The other results are listed elsewhere or left out. At the low end of the ranking the order means little.
# System: MYC (p64) + MAX (p21), in MYC:MAX
# Assay: protein-binding microarray (anti-MAX antibody)
# Conditions: PBM: 15 mM Tris-HCl pH 7.5, 100 mM KCl, 0.075% NP40, 7.5 mM beta-mercaptoethanol, 375 ng/ul BSA, 8 ng/ul poly(dA-dT):(dA-dT), 550 ng complex, 60 min, room …; high values mean tight binding; double strand, one strand shown; sequences stand for … in CCGGC…TTAATAGCTAAGATTACTATATCGACG
row,Sequence,binding signal (log2 normalized fluorescence)
1,TGACACCATGTA,0.248
2,TGAGTAGTAGTA,-0.16
3,TGAACATTCGTA,0.164
4,TGAGATAACGTA,0.034
5,TGACGTATGGTA,0.28
6,TGAATCCCTGTA,0.136
7,TGAGTCACAGTA,0.0795
8,TGAAAGAACGTA,0.0771
9,CGACGAGTGGTA,0.229
10,TGACATCACGTA,0.49
11,TGACAAGTCGTA,-0.0633
12,TGACAGAACGTA,0.0477
13,TGACTGAAGGTA,0.041
14,TGACGTGGTGTA,0.243
15,TTTCAGGTGGTA,0.195
16,TGAAACGGGATA,0.0551
17,TGAAACTAAGTA,-0.0738
18,TGAGAGAGGGTA,-0.119
19,TGATCAGTGGTA,0.152
20,TGAAGTGCAGTA,0.196
21,TGAGATTTGGTA,-0.188
22,TGACAGAAAGTA,-0.0314
23,TGAAGGGCGGTA,0.109

row,Sequence,binding signal (log2 normalized fluorescence)
1,TTTCACATGGTA,0.504
2,TGAGGCAATGTA,0.116
3,TGATCCTTCGTA,-0.0978
4,TGATCTAGAGTA,-0.0994
5,TGACAAGATGTA,0.217
6,TGAGCGTGCGTA,0.326
7,TGAGATTAAGTA,-0.164
8,TGAAGTCTGGTA,0.162
9,TGACGCGGAGTA,0.127
10,TGACGCGGCGTA,0.201
11,TGAACCGAAGTA,0.0529
12,GAAGCTTTGGTG,-0.157
13,TGAATTCATGTA,0.297
14,TGAATCTGTGTA,-0.0948
15,TGAGTGATCGTA,0.194
16,TGAGTTCTTGTA,-0.272
17,TGATGGGGCGTA,0.129
18,TGAAGGCACGTA,0.12
19,TGACTACTAGTA,0.17
20,TGATGTAGGGTA,0.174
21,TGACATACGGTA,0.172
22,TGATTGTCTGTA,0.0975
23,TGACATGACGTA,0.368

row,Sequence,binding signal (log2 normalized fluorescence)
1,TGATGCGGCGTA,0.216
2,AAGTTTAAGCCG,0.00903
3,TGATATTGGGTA,-0.186
4,TGAGTAAAGGTA,-0.0241
5,TGACCGCTGGTA,0.0667
6,TGACCGACAGTA,0.152
7,TGAGCCCAGGTA,0.000247
8,TGAGAATGAGTA,0.0435
9,TGAGTACCAGTA,0.201
10,TGAGGGACTGTA,0.0339
11,TGAAATGCGGTA,0.511
12,TGAACGGCAGTA,0.0669
13,TAGGTCAGAGCC,-0.355
14,TGAGATGGCGTA,0.105
15,TGAAAGCCTGTA,0.107
16,TGAGGTACCGTA,0.125
17,TGATCTTCAGTA,0.0538
18,TGACAGTAAGTA,0.212
19,TGACTCTGAGTA,-0.0923
20,TGATAGCTTGTA,-0.0392
21,TGATACGTGTTG,0.282
22,TGACGGCTGGTA,0.237
23,TGATAAACAGTA,0.0767

row,Sequence,binding signal (log2 normalized fluorescence)
1,TGACTGGATGTA,0.15
2,TGAGGAAGGGTA,0.0351
3,TGATGTGGTGTA,0.237
4,TGACACAATGTA,0.33
5,TGATCAGTCGTA,-0.235
6,TGACAGTTAGTA,-0.0778
7,CCTCACGTGGTA,0.828
8,TGATCGGCGGTA,0.0519
9,TGACGTGAAGTA,0.0489
10,TGATCTTTCGTA,-0.0975
11,TGATTTCATGTA,0.198
12,TGAATCAGCGTA,-0.257
13,TGATTTGCAGTA,-0.154
14,TGACTCGTGCTG,0.41
15,CGGCTCGTGGTA,0.412
16,TGATGTCGCGTA,0.18
17,TGAACCCGAGTA,0.0729
18,TGATCAGAGGTA,0.0884
19,TGAGTGCGAGTA,0.0338
20,TGAAAACTTGTA,-0.0577
21,TGATTGCGGGTA,0.0152
22,TGACCACGCGTA,0.553
23,TTGTACGTGGTA,0.384

row,Sequence,binding signal (log2 normalized fluorescence)
1,TGAAATAACGTA,0.0565
2,GCTGGTAGCGCC,-0.0633
3,TGACAGCTTGTA,0.0423
4,TGACGGTATGTA,0.151
5,TGAATATATGTA,0.0567
6,TGAGGATAAGTA,-0.199
7,TGAAAAATAGTA,-0.136
8,TGACAAACGGTA,0.0333
9,TGATGGGCTGTA,0.0985
10,TGACTCGGGGTA,0.271
11,TGATAAACTGTA,0.0092
12,GTACACGTGGTC,0.89
13,TGAGGTTGGGTA,-0.0801
14,TGAGTGAACGTA,0.164
15,TGAACCCGTGTA,0.4
16,TGATTAACAGTA,-0.108
17,TTAAGCGTGGTA,0.561
18,TGAGGCCTGGTA,-0.0289
19,TGTCAGGTGCTA,0.38
20,TGAGCAACTGTA,0.128
21,TGAACGGACGTA,0.0519
22,TGAACTAGGGTA,0.0193
23,TGAAACCGCGTA,0.25

row,Sequence,binding signal (log2 normalized fluorescence)
1,TGAAACGAGGTA,0.314
2,TGAGAAGGAGTA,-0.0932
3,TGCCACGTGGAA,0.873
4,GGGCACGTGGTC,0.929
5,TGATCCGAGGTA,-0.0333
6,TGAGTGCAAGTA,0.268
7,TGATGTAAAGTA,-0.123
8,TGATCAAGAGTA,-0.0485
9,TGATTCTGGGTA,-0.191
10,TGAGCGTTCGTA,0.0308
11,TGAGCTCGCGTA,0.244
12,TGACCTCCAGTA,0.268
13,TGATATCATGTA,0.238
14,TGCCACGTCGTA,0.37
15,TGACTCGGCGTA,0.0225
16,TTTCACGTGGTA,0.847
17,TGATTATTCGTA,-0.191
18,TCTGACGTGGTA,0.473
19,TGAGGTGAAGTA,-0.0468
20,TGAACAAAGGTA,0.0742
21,TGAATTTACGTA,-0.111
22,TGACTTCTGGTA,0.00271
